In the supplement of paper PMC10126150:
Sequences with one replicate were seen in a single cluster, so their values are uncertain.

System: ATP
Assay: switch fluorescence ratio, 500 uM ATP over buffer (Cy3 cluster intensity, sum of 5 cycles each) (fold (ratio)); higher = stronger signal-on switching upon ATP binding; sequences stand for … in TCGTCGGCAGCGTCAGATGTGTATAAGAGACAGTTTTTTTTTTTTTTTTTTTTTTTTT…TC
Conditions: aptamer strand: ATP DNA aptamer (quencher-CACCTGGGGGAGTATTGCGGAGGAAGG + anchor), 100 nM annealed; ATP concentration: 500 uM; one replicate
Outline: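 Exposure to 500 uM ATP lasted 15 min at 22 °C before imaging, and a selection-buffer image was taken beforehand, for Cy3-labelled switching-strand clusters on a modified Illumina MiSeq flow-cell annealed to 100 nM quencher-labelled ATP aptamer. Five buffer/ATP cycles were run with NaOH stripping and re-annealing between them. The fluorescence ratio per cluster is summed target-cycle over summed buffer-cycle Cy3 intensity, averaged per switch-domain sequence. Clusters outside 100-1000 RFU were excluded.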

Sequence | switch fluorescence ratio
TCGGTGGGCT | 0.941
GCGGGATTG | 1.02
ATTCGAAACC | 3.33
AGCATCAGCT | 1.05
CGCGTCCCG | 1.03
AAATCAACCA | 0.988
CAAGGGTTTC | 1.02
TAACCCTGTT | 0.986
TTGACTCGG | 0.987
CATAGTGCAG | 1.04
AGATGGGTTA | 0.992
GTAGTAGGTA | 0.996
AGGGTGCTTT | 0.962
TATTGGCGAC | 0.972
ATGCATTAAA | 1.03
AGGTTCATTC | 0.982
AACGCGAAGG | 1.02
GTCGTACCAC | 0.991
TAAAACGTAT | 1.01
TAAACTTTAG | 1.05
CCCATGCGCC | 1.31
CAACATTAC | 1.45
GACGAACGTC | 0.969

Sequence | switch fluorescence ratio
TTTTCTTTGT | 0.942
AGAAGTAGCG | 1.01
CGCCTTGCGA | 1
ACATCCAGCA | 1.05
TCCCTGTGAG | 1.01
TATGTAGTTC | 0.964
GATTTCCGG | 1.05
TTGGATCGCC | 1.01
TTTCAGTAAG | 1.05
AGTTCTCGG | 1.02
TGGGTTGTT | 0.971
AGATGTTATT | 0.992
GAGGCGACGA | 1
GCGGATGTGG | 0.945
GATCTGCGGG | 0.95
AGCAAATAGG | 1.11
GGATGTAGCT | 0.95
AAATAGGGCA | 1.11
ATGGGTAGGT | 1.02
CGCTGGCGGG | 1.03
AGCTGCTAT | 1.1
CAGATCAGTG | 0.999
GAAACGTA | 1.06

Sequence | switch fluorescence ratio
CGATTTTATC | 0.99
CTCGAATGAG | 1.01
ACTTGTATTA | 0.969
TGATTGAGTC | 1.03
ACAGAGTGCG | 1.03
TTCAGGTCA | 1.01
CTAAAGGTAT | 1
AGGTGAATCA | 0.996
TGCTCGCGCG | 0.975
GAGGAGCTAT | 1.05
ATTATATCA | 0.945
GGCCGTTCAA | 1.02
ATTGGGAACA | 1.02
AATCGCCGC | 1.04
GGCACGGGCT | 0.99
GTCAGTCCGA | 1.01
GGCGTACA | 0.981
GTGAGATGCC | 1.03
CTCGTCCGA | 1.03
CCCTGGAGCT | 1.19
TTTTGCCGGT | 0.962
TAAGACCGCG | 1.01
GCCAATTTTG | 0.989

Sequence | switch fluorescence ratio
ATAATCTTTA | 0.983
TGAAGCGGCC | 1.11
GGGCAGCGGA | 0.94
GCAATCTTTC | 1.28
AAGGACACGT | 1.02
GGTGGGTCCT | 0.987
AGTAAGTGCT | 0.994
CGCGCGAAAC | 1.01
TCCGTTTGGT | 1.01
GGAGTAGGGG | 0.935
GGTTACGTGC | 1.06
AGCTTTTCGT | 0.985
TGTCCCCCTT | 1.73
TGGATGACTG | 1.53
GAGCTTCTAT | 0.967
TGCATGAATT | 0.984
GGAAGCCAAG | 0.998
GTGAGTACTG | 1.05
GGTCCTAAGA | 1.01
ATTGGCCTCT | 1.02
CATCTAGAAT | 0.99
CTGATAAGC | 0.923
TAGCCTATGC | 0.976

Sequence | switch fluorescence ratio
TAGTCAGTT | 0.991
ATTGAGCC | 1.01
TCTCGTTCTG | 0.969
AGTTCGACCC | 1.04
AGCGGCAGAT | 0.983
TGTATGAAA | 1.04
CATGGGCAAC | 1.09
TCGGCAGATG | 0.967
CGGGGAGCAC | 1.05
GTGAAGCCTA | 0.935
GCATCATTGA | 0.985
CTGGTTCAG | 0.993
TGAATATAAG | 0.997
AGCTTCGGCC | 1.13
TAGGAATGCT | 1.01
AGTTATTTA | 0.996
TAAGGGTAG | 0.995
TAGATCAATC | 1.04
TGTAGGGGAG | 0.996
TCGTGCAGGA | 0.994
GCGATCCTCG | 1.06
AGCTAGTAT | 0.998
AATGGGATGA | 0.967

Sequence | switch fluorescence ratio
GATTTCTTGC | 1.02
AGGGGAGAAG | 0.955
GAAGGAGGTC | 1.01
GCTGGGTTA | 0.99
CTGGCTCAAG | 1.03
AAAGCGGTTT | 1.01
TTATCTGCAG | 1.1
TCGGGCAGTA | 1.1
TCGGATGACA | 0.87
AATGAACGGT | 1.02
TGGCCGAAGG | 1.2
CTGAACAGCA | 1.27
AGGCTGGGAT | 1.09
CGGAATTACT | 1.33
TGGACAGCTT | 1.01
CTGTTCGTT | 0.974
GTTGTCGTCT | 1.08
CAGGAAGGG | 1.05
GTGGCACGGA | 0.98
GAGTAGAGGA | 1.07
GAGTTGCGGG | 1.03
TTCTTTAGTG | 0.974
GGTGCACTA | 1

Sequence | switch fluorescence ratio
CGTAACGATC | 1.05
ATTTGTCTGC | 0.967
CCTATCCGTT | 1.09
TCAGCTTGAG | 0.989
CGCGAAGACA | 1.05
TAAGGGTAGT | 1.02
ATGGGATTTT | 0.981
GGAATGGACT | 1.02
TACCTGCTCC | 1.42
AATTAACGTG | 1.04
TCCGTATTCC | 1.32
CATAGTAGTT | 1.04
TATGAGCTTG | 0.934
TGCCATTGAT | 1.04
CGGTGTCCCT | 1.01
TGATGAGAGT | 0.998
TGGCTGACG | 1.08
ACGGTTGAAG | 1.04
CTCTGTATGC | 2
CTCAATTTTT | 0.983
